In the supplement of paper PMC10369915:
The other results are listed elsewhere or left out. No stated cut-off is given here; in the data, active = 3.2 or more and inactive = the rest. Most of these values are background signal.

Tests used:
Assay in all cases: enrichment score (SH2-bound / input frequency) (ratio); bacterial display of known human phosphotyrosine sites (pTyr-Var adds point mutants) read by sequencing; higher = stronger binding; tyrosines were phosphorylated by kinases first
Details in all cases: peptide library: pTyr-Var
SHP2 C-SH2 domain E139D = biological target: SHP2 C-SH2 domain E139D
[1] = biological target: SHP2 C-SH2 domain wild-type
SHP2 N-SH2 domain L43F = biological target: SHP2 N-SH2 domain L43F
SHP2 N-SH2 domain T42A = biological target: SHP2 N-SH2 domain T42A
SHP2 N-SH2 domain T52S = biological target: SHP2 N-SH2 domain T52S
[2] = biological target: SHP2 N-SH2 domain wild-type

Measured: enrichment score
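Further: displayed peptides selected on beads carrying the immobilized SH2 domain, with library peptides lacking any tyrosine serving as negative controls.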

RSAGKYDVYLI [MECP2_Y120]
inactive: SHP2 C-SH2 domain E139D 0.924 | [1] 1.07 | SHP2 N-SH2 domain L43F 1.05 | SHP2 N-SH2 domain T42A 0.714 | SHP2 N-SH2 domain T52S 0.915 | [2] 1.28

RSAGKDDVFLI [MECP2_Y120_Y120D_YF]
inactive: SHP2 C-SH2 domain E139D 0.908 | [1] 0.609 | SHP2 N-SH2 domain L43F 0.464 | SHP2 N-SH2 domain T42A 1.33 | SHP2 N-SH2 domain T52S 0.62 | [2] 0.821

RSAGKYDVFLI [MECP2_Y120_YF]
inactive: SHP2 C-SH2 domain E139D 0.909 | [1] 0.936 | SHP2 N-SH2 domain L43F 0.928 | SHP2 N-SH2 domain T42A 0.845 | SHP2 N-SH2 domain T52S 0.867 | [2] 0.984

SSENPYATIKD [MEGF10_Y1030]
inactive: SHP2 C-SH2 domain E139D 0.871 | [1] 2.49 | SHP2 N-SH2 domain L43F 0.548 | SHP2 N-SH2 domain T42A 0.734 | SHP2 N-SH2 domain T52S 0.624 | [2] 0.589

SSENPCATIKD [MEGF10_Y1030_Y1030C]
inactive: SHP2 C-SH2 domain E139D 0.571 | [1] 0.591 | SHP2 N-SH2 domain L43F 0.604 | SHP2 N-SH2 domain T42A 0.572 | SHP2 N-SH2 domain T52S 0.597 | [2] 0.616

MPAVTYTPAMR [MEGF10_Y895]
inactive: SHP2 C-SH2 domain E139D 0.674 | [1] 0.478 | SHP2 N-SH2 domain L43F 0.663 | SHP2 N-SH2 domain T42A 0.47 | SHP2 N-SH2 domain T52S 0.491 | [2] 0.589

GESSGYLRLAF [MEP1A_Y481_R476G]
inactive: SHP2 C-SH2 domain E139D 1.29 | [1] 2.61 | [2] 2.7
active: SHP2 N-SH2 domain L43F 6.18 | SHP2 N-SH2 domain T42A 13.5 | SHP2 N-SH2 domain T52S 8.69

QADVIYVNTQL [MERTK_Y872]
inactive: SHP2 C-SH2 domain E139D 1.06 | [1] 1.21 | SHP2 N-SH2 domain L43F 0.935 | SHP2 N-SH2 domain T42A 1.3 | SHP2 N-SH2 domain T52S 0.928 | [2] 1.05

QADVTYVNTQL [MERTK_Y872_I871T]
inactive: SHP2 C-SH2 domain E139D 1.63 | [1] 1.97 | SHP2 N-SH2 domain L43F 1.89 | SHP2 N-SH2 domain T52S 1.76 | [2] 1.57
active: SHP2 N-SH2 domain T42A 7.17

QADIIYVNTQL [MERTK_Y872_V870I]
inactive: SHP2 C-SH2 domain E139D 1.21 | [1] 1.44 | SHP2 N-SH2 domain L43F 1.12 | SHP2 N-SH2 domain T42A 1.42 | SHP2 N-SH2 domain T52S 1.07 | [2] 1.23

NESVDYRATFP [MET_Y1003]
inactive: SHP2 C-SH2 domain E139D 0.791 | [1] 0.693 | SHP2 N-SH2 domain L43F 0.841 | SHP2 N-SH2 domain T42A 0.614 | SHP2 N-SH2 domain T52S 0.733 | [2] 0.823

NESVDSRATFP [MET_Y1003_Y1003S]
inactive: SHP2 C-SH2 domain E139D 0.556 | [1] 0.561 | SHP2 N-SH2 domain L43F 0.529 | SHP2 N-SH2 domain T42A 0.467 | SHP2 N-SH2 domain T52S 0.603 | [2] 0.556

HFGCVYYGTLL [MET_Y1093_H1094Y]
inactive: SHP2 C-SH2 domain E139D 1.24 | [1] 1.36 | SHP2 N-SH2 domain L43F 0.905 | SHP2 N-SH2 domain T42A 0.811 | SHP2 N-SH2 domain T52S 1.22 | [2] 1.44

LARHMYDKEYY [MET_Y1230_D1228H]
inactive: SHP2 C-SH2 domain E139D 0.705 | [1] 0.915 | SHP2 N-SH2 domain L43F 0.712 | SHP2 N-SH2 domain T42A 0.551 | SHP2 N-SH2 domain T52S 1.07 | [2] 0.963

LARDMCDKEYY [MET_Y1230_Y1230C]
inactive: SHP2 C-SH2 domain E139D 1.05 | [1] 0.999 | SHP2 N-SH2 domain L43F 1.16 | SHP2 N-SH2 domain T42A 0.982 | SHP2 N-SH2 domain T52S 1.04 | [2] 1.12

LARDMDDKEYY [MET_Y1230_Y1230D]
inactive: SHP2 C-SH2 domain E139D 0.623 | [1] 0.623 | SHP2 N-SH2 domain L43F 0.889 | SHP2 N-SH2 domain T42A 0.97 | SHP2 N-SH2 domain T52S 0.544 | [2] 0.734

LARDMDDKEFF [MET_Y1230_Y1230D_YF]
inactive: SHP2 C-SH2 domain E139D 0.781 | [1] 0.757 | SHP2 N-SH2 domain L43F 0.527 | SHP2 N-SH2 domain T42A 0.854 | SHP2 N-SH2 domain T52S 0.734 | [2] 0.572

MCDKEYYSVHN [MET_Y1234_Y1230C]
inactive: SHP2 C-SH2 domain E139D 0.775 | [1] 0.828 | SHP2 N-SH2 domain L43F 0.741 | SHP2 N-SH2 domain T42A 0.728 | SHP2 N-SH2 domain T52S 0.615 | [2] 1.02

MDDKEYFSVHN [MET_Y1234_Y1230D_YF]
inactive: SHP2 C-SH2 domain E139D 0.678 | [1] 0.751 | SHP2 N-SH2 domain L43F 0.669 | SHP2 N-SH2 domain T42A 0.537 | SHP2 N-SH2 domain T52S 0.688 | [2] 0.607

HDKEFYSVHNK [MET_Y1235_Y1230H_YF]
inactive: SHP2 C-SH2 domain E139D 0.526 | [1] 0.557 | SHP2 N-SH2 domain L43F 0.695 | SHP2 N-SH2 domain T42A 0.723 | SHP2 N-SH2 domain T52S 0.251 | [2] 0.624

FDKEFYSVHNK [MET_Y1235_YF]
inactive: SHP2 C-SH2 domain E139D 0.805 | [1] 0.628 | SHP2 N-SH2 domain L43F 0.594 | SHP2 N-SH2 domain T42A 0.709 | SHP2 N-SH2 domain T52S 0.953 | [2] 0.948

SELVCYDARVH [MET_Y971_R970C]
inactive: SHP2 C-SH2 domain E139D 0.557 | [1] 0.85 | SHP2 N-SH2 domain L43F 0.682 | SHP2 N-SH2 domain T42A 0.676 | SHP2 N-SH2 domain T52S 0.675 | [2] 0.758

RAKLFYQEVPA [METTL11B_Y76]
inactive: SHP2 C-SH2 domain E139D 0.896 | [1] 1.02 | SHP2 N-SH2 domain L43F 0.758 | SHP2 N-SH2 domain T42A 0.971 | SHP2 N-SH2 domain T52S 0.782 | [2] 1.1

SHNKYYMLVAH [MFSD8_Y134_R139H]
active: SHP2 C-SH2 domain E139D 5.69 | [1] 7.44 | SHP2 N-SH2 domain T42A 3.31
inactive: SHP2 N-SH2 domain L43F 3.16 | SHP2 N-SH2 domain T52S 3.01 | [2] 2.58

SHNKFYMLVAR [MFSD8_Y134_YF]
inactive: SHP2 C-SH2 domain E139D 2.98 | [1] 2.67 | SHP2 N-SH2 domain L43F 2.61 | SHP2 N-SH2 domain T42A 2.42 | SHP2 N-SH2 domain T52S 2.72 | [2] 3.06

QSKGIYYVQLE [MGAT4B_Y262]
active: SHP2 N-SH2 domain L43F 4.18 | SHP2 N-SH2 domain T42A 10.1 | SHP2 N-SH2 domain T52S 3.81
inactive: SHP2 C-SH2 domain E139D 1 | [1] 1.28 | [2] 1.29

HSKGIYYVQLE [MGAT4B_Y262_Q257H]
active: SHP2 N-SH2 domain L43F 3.35 | SHP2 N-SH2 domain T42A 9.58 | SHP2 N-SH2 domain T52S 4.2
inactive: SHP2 C-SH2 domain E139D 1.26 | [1] 2.04 | [2] 1.98

QSKGIYFVQLE [MGAT4B_Y262_YF]
inactive: SHP2 C-SH2 domain E139D 1.43 | [1] 1.13 | SHP2 N-SH2 domain L43F 1.28 | SHP2 N-SH2 domain T42A 1.21 | SHP2 N-SH2 domain T52S 1.38 | [2] 1.52

GAVGNYSRGLA [MGMT_Y158_G160R]
inactive: SHP2 C-SH2 domain E139D 0.553 | [1] 0.548 | SHP2 N-SH2 domain L43F 0.523 | SHP2 N-SH2 domain T42A 0.555 | SHP2 N-SH2 domain T52S 0.46 | [2] 0.59

QELRRYLKSGI [MICA_Y194_V199I]
inactive: SHP2 C-SH2 domain E139D 0.62 | [1] 0.645 | SHP2 N-SH2 domain L43F 0.724 | SHP2 N-SH2 domain T42A 0.562 | SHP2 N-SH2 domain T52S 0.442 | [2] 0.389

LGRTRYQDVTG [MIPEP_Y510_H512D]
inactive: SHP2 C-SH2 domain E139D 0.743 | [1] 0.589 | SHP2 N-SH2 domain L43F 0.843 | SHP2 N-SH2 domain T42A 0.651 | SHP2 N-SH2 domain T52S 0.642 | [2] 0.771

QLQVFYATLDQ [MIPEP_Y579]
active: SHP2 N-SH2 domain L43F 3.88 | SHP2 N-SH2 domain T42A 11.7 | SHP2 N-SH2 domain T52S 5.99
inactive: SHP2 C-SH2 domain E139D 2.2 | [1] 2.89 | [2] 1.74

QLQVFYATRDQ [MIPEP_Y579_L582R]
inactive: SHP2 C-SH2 domain E139D 1.31 | [1] 1.17 | SHP2 N-SH2 domain L43F 1.15 | SHP2 N-SH2 domain T42A 1.2 | SHP2 N-SH2 domain T52S 1.21 | [2] 1.21

EGWQVYRLGTR [MISP_Y95_A99T]
inactive: SHP2 C-SH2 domain E139D 0.565 | [1] 0.557 | SHP2 N-SH2 domain L43F 0.477 | SHP2 N-SH2 domain T42A 0.499 | SHP2 N-SH2 domain T52S 0.549 | [2] 0.545

KAPVDYIRKLQ [MITF_Y360_S357P]
inactive: SHP2 C-SH2 domain E139D 0.708 | [1] 0.737 | SHP2 N-SH2 domain L43F 0.749 | SHP2 N-SH2 domain T42A 0.606 | SHP2 N-SH2 domain T52S 0.737 | [2] 0.759

TTKVSYRASQP [MKI67_Y1737]
inactive: SHP2 C-SH2 domain E139D 0.728 | [1] 0.784 | SHP2 N-SH2 domain L43F 0.692 | SHP2 N-SH2 domain T42A 0.714 | SHP2 N-SH2 domain T52S 0.611 | [2] 0.692

TTIVSYRASQP [MKI67_Y1737_K1734I]
inactive: SHP2 C-SH2 domain E139D 0.933 | [1] 0.791 | SHP2 N-SH2 domain L43F 0.808 | SHP2 N-SH2 domain T42A 0.638 | SHP2 N-SH2 domain T52S 0.924 | [2] 0.745
